Assay results published in PubChem BioAssay AID248 (DTP/NCI, 2004).
Inconclusive results and toxic doses are left out. A number of entries come with more than one value. They are shown here; other results are not. The source may hold further records. Values that stand side by side repeat one measurement across runs, samples, wells, individuals or studies.

Tested on: L1210 leukemia ip in BDF1 mice, survival T/C
Test: NCI In Vivo Anticancer Drug Screen. Data for tumor model L1210 Leukemia (intraperitoneal) in B6D2F1 (BDF1) mice
Conditions: endpoint: mean survival time, higher = longer survival

For `CN=C(NC)c1ccc(NC(=O)c2ccc(C(=O)Nc3ccc(C(=NC)NC)cc3)cc2)cc1`, the T/C (dose: 0.45 mg/kg/injection, schedule: Q01DX Z (ip), vehicle: methylcellulose (MC)) was 104 % of control and 158 % of control.
In the case of `COc1cc(-c2ccc(Nc3ccccc3C(=O)O)c(OC)c2)ccc1Nc1ccccc1C(=O)O`, the T/C (dose: 150.0 mg/kg/injection, schedule: Q01DX Z (ip), vehicle: saline) is reported as 101 % of control and 156 % of control.
For `C1OC1CN1CCC(C2CCN(CC3CO3)CC2)CC1` (stereo not drawn), the T/C (dose: 30.0 mg/kg/injection, schedule: Q01DX009 (ip), vehicle: saline) was 107 % of control and 177 % of control.
For `CCC(=O)NC1=C(N2CC2)C(=O)C(NC(=O)CC)=C(N2CC2)C1=O`, the T/C (dose: 10.0 mg/kg/injection, schedule: Q01DX001 (ip), vehicle: saline) was 115 % of control and 191 % of control.
For `CC1CN1c1cc(O)c(N2CC2C)cc1O` (stereo not drawn), the T/C (dose: 1.8 mg/kg/injection, schedule: Q01DX Z (ip), vehicle: methylcellulose (MC)) was 116 % of control, 117 % of control, 160 % of control.
In the case of `ClCCC(c1ccccc1)N1CCCCC1` (stereo not drawn), the T/C (dose: 100.0 mg/kg/injection, schedule: Q01DX001 (ip), vehicle: saline) is reported as 92 % of control, 101 % of control, 168 % of control.
With `CCN(CC)P(=O)(N1CC1(C)C)N1CC1(C)C` (stereo not drawn) the T/C (dose: 200.0 mg/kg/injection, schedule: Q01DX001 (ip), vehicle: saline) was 115 % of control and 155 % of control.
With `C=CCNC(=O)NCC=C` the T/C (dose: 100.0 mg/kg/injection, schedule: Q01DX009 (oral), vehicle: saline) was 97 % of control and 160 % of control.
